According to PubChem BioAssay (NCATS):
The shares of active, inactive and inconclusive entries below differ from those in the screen. No potency is given beside an inconclusive call; the fits are too rough. The source made the active and inactive calls. Calls follow the shape of the dose curve; as a rule, active = well fitted inhibition curve with a large enough effect; inconclusive = small, poorly fitted or top-dose-only effect; inactive = no such curve, though single readings can be large or run the other way.

Target: Rap guanine nucleotide exchange factor 3 (Homo sapiens) (UniProt O95398)
Chain of UniProt O95398 (O95398 whole entry, looked up): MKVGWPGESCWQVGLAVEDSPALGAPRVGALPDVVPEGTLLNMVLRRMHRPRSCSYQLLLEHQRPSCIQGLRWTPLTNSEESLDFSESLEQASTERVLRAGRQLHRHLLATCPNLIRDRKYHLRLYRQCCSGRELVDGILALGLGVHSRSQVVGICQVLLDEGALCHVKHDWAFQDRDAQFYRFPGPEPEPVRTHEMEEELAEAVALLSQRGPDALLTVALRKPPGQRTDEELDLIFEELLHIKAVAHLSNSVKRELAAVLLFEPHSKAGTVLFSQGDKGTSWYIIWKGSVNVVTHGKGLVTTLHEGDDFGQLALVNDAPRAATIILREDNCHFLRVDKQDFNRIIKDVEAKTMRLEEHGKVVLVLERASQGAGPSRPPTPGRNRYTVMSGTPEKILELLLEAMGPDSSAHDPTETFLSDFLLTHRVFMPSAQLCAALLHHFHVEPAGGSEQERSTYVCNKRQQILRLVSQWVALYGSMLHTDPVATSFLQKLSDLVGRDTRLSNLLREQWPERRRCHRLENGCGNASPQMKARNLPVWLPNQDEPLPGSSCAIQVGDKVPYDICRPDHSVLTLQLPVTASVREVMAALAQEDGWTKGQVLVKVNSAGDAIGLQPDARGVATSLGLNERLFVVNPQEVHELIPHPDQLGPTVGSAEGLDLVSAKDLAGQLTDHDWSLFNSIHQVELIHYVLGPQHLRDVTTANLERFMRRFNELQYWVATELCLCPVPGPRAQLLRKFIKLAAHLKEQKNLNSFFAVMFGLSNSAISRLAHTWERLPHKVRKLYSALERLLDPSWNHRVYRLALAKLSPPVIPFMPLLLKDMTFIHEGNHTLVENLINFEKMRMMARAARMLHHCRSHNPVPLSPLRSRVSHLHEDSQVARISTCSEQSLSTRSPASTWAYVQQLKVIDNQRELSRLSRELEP
Assay: Confirmatory qHTS for antagonist of cAMP-regulated guanine nucleotide exchange factor 3 (EPAC1) (AID 1645880); also: nearly all actives have a fitted effect of over 55% in size
Conditions: EPAC1 Rap1B-BODIPY-GDP exchange, fluorescence; series mostly up to 115 µM
How it was run: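 Released BODIPY-GDP fluoresces less than Rap1-bound BODIPY-GDP; the signal is followed at 480/540 nm at 5-min intervals over 30 min, after 5 min at room temperature. Reactions contain 100 nM EPAC1, 250 nM RAP1B-BODIPY-GDP and 50 uM GDP; results are normalized to ATA and DMSO.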
Potency is read from the fitted curve at half-maximal effect; tags tell the direction and shape of the fitted curve.

| Structure (SMILES) | Potency |
| --- | --- |
| COc1ccccc1NC(=O)C(C)OC(=O)COc1cccc2c1OC(C)(C)C2 (stereo not given) | inactive |
| COc1cccc2sc(N(CCCN(C)C)C(=O)C(c3ccccc3)c3ccccc3)nc12 | inconclusive [inhibitor, partial curve] |
| O=C(O)c1cnn(-c2nc(-c3ccc(Cl)c(Cl)c3)cs2)c1C(F)(F)F | active: 75.7 µM |
| COc1cc(/C=C2\SC(=S)N(NS(=O)(=O)c3ccccc3)C2=O)ccc1O | inactive |
| CCOc1ccccc1CNC(=O)Cn1nc(C)c2c(C)n(-c3ccc(C)cc3)nc2c1=O | inconclusive [inhibitor, partial curve] |
| COc1ccc(/C=N\NC(=O)c2cc3c(ccc4ccccc43)o2)cc1O | inactive |
| CSc1ccccc1NC(=O)COc1ccccc1C | inactive |
| CC(=O)NC(c1cc(Cl)c2ccccc2c1O)C(C)C (stereo not given) | inconclusive [inhibitor, partial curve, poor fit] |
| CC(C)CCNC(=O)c1onc(CSc2ccccn2)c1C(=O)NCCC(C)C | inconclusive [inhibitor, full curve] |
| O=C(NCc1ccccc1)C(c1ccc(-c2ccccc2)cc1)n1c(=O)c(-c2ccco2)nc2ccccc21 (stereo not given) | inconclusive [inhibitor, full curve] |
| CCCCC[C@@H](C)N1C[C@H](COCc2ccccc2)Oc2cc(N3CC[C@@H](O)C3)ccc2S1(=O)=O | inconclusive [inhibitor, partial curve, poor fit] |
| CCOc1cc(/C=C(/C#N)c2ccc(Cl)cc2)cc(Cl)c1OCC(=O)O | inconclusive [inhibitor, single point] |
| CC(=O)Oc1c(Sc2ccccc2[N+](=O)[O-])c(C)nn1C(C)(C)C | active: 42.6 µM |
| Cc1ccc(N=Cc2cc3c(cc2[N+](=O)[O-])OCO3)cc1[N+](=O)[O-] | inconclusive [inhibitor, partial curve, poor fit] |
| COc1ccc(-c2cc(C(F)(F)F)nc(SCC(=O)NCCc3ccccc3)n2)cc1OC | inactive |
| O=C(O)C(Cc1c[nH]c2ccccc12)NS(=O)(=O)c1cccc(Cl)c1Cl (stereo not given) | inconclusive [inhibitor, partial curve] |
| O=C(c1ccc(-c2nnc(Nc3cccc(Cl)c3)c3ccccc23)cc1)N1C[C@H]2C[C@H](C1)c1cccc(=O)n1C2 | inconclusive [inhibitor, partial curve] |
| O=C(Cc1c(F)cccc1Cl)Nc1ccc(S(=O)(=O)Nc2nccs2)cc1 | inactive |
| CN(C)S(=O)(=O)N1CCN(S(=O)(=O)N(C)C)CC1 | inactive |
| O=c1[nH][nH]c(-c2ccccc2O)c1C(C[N+](=O)[O-])c1ccc(Cl)cc1Cl (stereo not given) | inactive |
| O=[N+]([O-])c1ccc(-n2nnnc2-c2ccccc2)c([N+](=O)[O-])c1 | inconclusive [inhibitor, partial curve] |
| O=C(CSc1nnc(-c2cccs2)n1Cc1ccco1)Nc1ccc2c(c1)OCO2 | inconclusive [inhibitor, partial curve, poor fit] |
| C=CCN(CC=C)Cc1cc(=O)oc2cc(C)c(Cl)cc12 | inconclusive [inhibitor, partial curve, poor fit] |
| CC1CCC/C(=C\Nc2ccc(O)cc2)C1=O (stereo not given) | inactive |
| CSc1ccccc1NC(=O)CN1c2ccccc2CC1C (stereo not given) | inconclusive [inhibitor, partial curve, poor fit] |
| O=C(/C=C/c1ccc([N+](=O)[O-])cc1)Nc1cccc(C(=O)Nc2ccccc2C(=O)O)c1 | active: 22.4 µM |
| C=CCn1c(=NC(=O)c2sc3ccccc3c2Cl)sc2cc(S(N)(=O)=O)ccc21 | inconclusive [inhibitor, partial curve] |
| CCCCC[C@@H](C)N1C[C@@H](COCc2ccccc2)Oc2cc(N3CC[C@H](O)C3)ccc2S1(=O)=O | inconclusive [inhibitor, partial curve, poor fit] |
| N#C/C(=C/c1ccc(-c2ccc(S(N)(=O)=O)cc2)o1)c1nc2ccccc2s1 | inconclusive [inhibitor, partial curve] |
| CC(=O)N1CCC[C@H]1C(=O)NCC1Cc2cc(-c3cccc(OC(F)(F)F)c3)ccc2O1 (stereo not given in full) | inconclusive [inhibitor, partial curve, poor fit] |
